We go through 60 sequences from the supplement of paper PMC10338343.

± gives the standard deviation. The entries are a selection whose mix differs from that of the whole data set.

For this test, the system named is MIWI (PIWIL1) piRISC loaded with L1MC piRNA (30 nt). Kind of test: pre-steady-state target cleavage rate (min^-1); MIWI and MILI are mouse PIWI proteins and EfPiwi is from a freshwater sponge; tags in brackets are library labels; higher = faster piRNA-guided slicing of the target. The conditions noted are these: guide: L1MC piRNA 5'p-UAACUAAAUACUAUGCAAGCUGUAGGUCCU
Put shortly: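 Active affinity-purified piRISC carrying one synthetic guide (1 nM) was mixed with a transcribed, DNA-blocked target RNA library […] in HEPES–potassium acetate buffer at 33 °C for 0–8 or 0–960 min, with or without 500 nM GTSF1 partner protein. Uncleaved targets were then sequenced and normalised to depth and to weakly complementary targets. Three trials were pooled, and k3 was capped at 0.0001 min^-1. A burst-and-steady-state fit was applied to obtain the pre-steady-state cleavage rate.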

Where [1] appears, read: auxiliary factor: 500 nM mouse GTSF1.
[2] abbreviates: auxiliary factor: none (no GTSF1).
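Also: 1 nM active piRISC with 0.1 nM target library at 33 °C single turnover.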

For UCCUGCUACAGCUUGCAUAGUACUUUAGUUA, the “pre-steady-state target cleavage rate” value stood at 0.471 ± 0.036 under setting [1] and 0.00697 ± 0.0026 under setting [2].
Turning to UCGACCUACAGCUUGCAUACUAUUUACUUA, the “pre-steady-state target cleavage rate” value under setting [1] was determined as 0.217 ± 0.025 and the “pre-steady-state target cleavage rate” value under setting [2] is 0.0153 ± 0.0029.
On to UCGACCUACAGCUUGCAUAGUAUUUAGAUUA, for which the “pre-steady-state target cleavage rate” value is, setting by setting: under setting [1], 0.379 ± 0.023; under setting [2], 0.0342 ± 0.0063.
UCCUGGUUCAGCUUGCAUAGUAUUUAGAAA: the “pre-steady-state target cleavage rate” value runs as follows: under setting [1], 0.251 ± 0.036; under setting [2], 0.00732 ± 0.0027.
Take UCGAGCUACAGCUUGCAUAGUUUUUAGUUA: the “pre-steady-state target cleavage rate” value under setting [1] turned out to be 0.446 ± 0.023 and the “pre-steady-state target cleavage rate” value under setting [2] is 0.039 ± 0.0082.
For AGGACCAUCAGCUUGCAUAGUAUUUAGAAA, in that order: 0.479 ± 0.048 and 0.017 ± 0.0049.
For UCCUGGAUCAGCUAGCAUAGUAUAUAGUUA, in that order: 0.341 ± 0.036 and 0.00497 ± 0.0029.
As for UCCUGGAUCACCUUGCAUAGUAUUUACUUA, the “pre-steady-state target cleavage rate” value runs as follows: under setting [1], 0.136 ± 0.026; under setting [2], 0.0112 ± 0.0024.
Take AGGACCUACUGCUUGCAUAGUAUUUACAAA: the “pre-steady-state target cleavage rate” value turned out to be 0.234 ± 0.04 under setting [1] and 0.0115 ± 0.0033 under setting [2].
As to UCCUGGAUCAGCUUGCAUACUAUUUUGUUA, the “pre-steady-state target cleavage rate” value was 0.101 ± 0.013 under setting [1] and 0.0125 ± 0.0033 under setting [2].
Regarding UGGACCUACACCUUGCAAAGUAUUUAGUUA, the “pre-steady-state target cleavage rate” value runs as follows: under setting [1], 1.11 ± 0.035; under setting [2], 0.038 ± 0.0068.
In the case of UGGACCUACAGGAUGCAUAGUAUUUAGUUA, the “pre-steady-state target cleavage rate” value under setting [1] came out at 1.02 ± 0.082 and the “pre-steady-state target cleavage rate” value under setting [2] worked out at 0.0264 ± 0.0053.
The matching figures for UCCUGGAUGUCGUUCGCAUAGUAUUUAGUUA: 0.0145 ± 0.0039 and 0.00279 ± 0.0023.
For UCCUGCUACAGCUUGUAUAGUAUUUAGUUA, in that order: 0.716 ± 0.037 and 0.0279 ± 0.0056.
With AGGACCUACACGAUGCAUAGUAUUUAGUUA, the “pre-steady-state target cleavage rate” value reads like this: under setting [1], 0.966 ± 0.06; under setting [2], 0.00704 ± 0.0025.
Turning to AGGACGUACAGCUUGCAUAGUAUUUUGUUA, the “pre-steady-state target cleavage rate” value was determined as 0.757 ± 0.068 under setting [1] and 0.0469 ± 0.0083 under setting [2].
For UCCUCCUUCUGCUUGCAUAGUAUUUAGUUA, in that order: 1.18 ± 0.038 and 0.0546 ± 0.0091.
Take UCCUGGAUGUGCUUGCAUAGUAUUUAGCUA: the “pre-steady-state target cleavage rate” value amounted to 0.0174 ± 0.0073 under setting [1] and 0.00598 ± 0.0029 under setting [2].
Take UCCUGGAUGUGGUUGCAUAGUAUUUUGUUA: the “pre-steady-state target cleavage rate” value under setting [1] worked out at 0.0123 ± 0.0062 and the “pre-steady-state target cleavage rate” value under setting [2] is 0.00513 ± 0.0033.
For UGGACGAUCAGCUUGCAUAGUAUUUACAAA, in that order: 0.351 ± 0.042 and 0.0104 ± 0.003.
On to UGGACUACAGCUUGCAUAGUAUUUAGUUA, for which the “pre-steady-state target cleavage rate” value under setting [1] turned out to be 1.34 ± 0.053 and the “pre-steady-state target cleavage rate” value under setting [2] is 0.0823 ± 0.013.
The matching figures for AGGACCUACAGCUUGCAUUGUAUUUAGUAA: 0.455 ± 0.041 and 0.0138 ± 0.0038.
As for UCCUGGAACAGCUUACAUAGUAUUUAGUUA, the “pre-steady-state target cleavage rate” value stood at 1.04 ± 0.04 under setting [1] and 0.054 ± 0.011 under setting [2].
On to UCCACCUACAGCGUUGCAUAGUAUUUAGUUA, for which the “pre-steady-state target cleavage rate” value under setting [1] is 1.03 ± 0.13 and the “pre-steady-state target cleavage rate” value under setting [2] was 0.0279 ± 0.005.
Regarding AGGACCAACAGCUUGCAUAGAAUUUAGUUA, the “pre-steady-state target cleavage rate” value by setting is: under setting [1], 0.519 ± 0.03; under setting [2], 0.0373 ± 0.0099.
As for UCCUGCAUCAGCUUGCAUAGUAUUUAGAAA, the “pre-steady-state target cleavage rate” value under setting [1] was determined as 0.327 ± 0.033 and the “pre-steady-state target cleavage rate” value under setting [2] was found to be 0.00615 ± 0.0032.
In the case of AGGACCUACAGCUUGCAUCGUAUUUAGUUA, the “pre-steady-state target cleavage rate” value runs as follows: under setting [1], 0.462 ± 0.033; under setting [2], 0.0314 ± 0.0062.
In the case of AGGACCUUCAGCUUGCAUAGUAUUUACAAA, the “pre-steady-state target cleavage rate” value by setting is: under setting [1], 0.378 ± 0.043; under setting [2], 0.01 ± 0.0026.
For AGGAGGAACAGCUUGCAUAGUAUUUAGUAA, the “pre-steady-state target cleavage rate” value by setting is: under setting [1], 0.874 ± 0.092; under setting [2], 0.0441 ± 0.0083.
As to UCCUGCUACAGCUUCGCAUAGUAUUUAGUUA, the “pre-steady-state target cleavage rate” value by setting is: under setting [1], 0.737 ± 0.032; under setting [2], 0.00649 ± 0.0024.
Turning to UCCACCUACAGCAUGCAUAGUAUUUAGUUA, the “pre-steady-state target cleavage rate” value reads like this: under setting [1], 0.977 ± 0.054; under setting [2], 0.0309 ± 0.0079.
The matching figures for UCCUGGAUGAGCUUGCAUAGUUUUUUGUUA: 0.0806 ± 0.014 and 0.0177 ± 0.0048.
In the case of UCCUGCUACAGCUUGCAUAGAAUUUAGUAA, the “pre-steady-state target cleavage rate” value is, setting by setting: under setting [1], 0.366 ± 0.051; under setting [2], 0.0151 ± 0.005.
Consider UCCUGGUACAGCUUGCAUAGUAUAUUGUUA, for which the “pre-steady-state target cleavage rate” value by setting is: under setting [1], 0.24 ± 0.05; under setting [2], 0.0215 ± 0.0062.
Turning to AGGACCUACAGCUUGCAAUGUAUUUAGUUA, the “pre-steady-state target cleavage rate” value is, setting by setting: under setting [1], 0.573 ± 0.043; under setting [2], 0.00531 ± 0.0019.
On to UGGACCUACAGCUUGCAUCGUAUUUAGUUA, for which the “pre-steady-state target cleavage rate” value by setting is: under setting [1], 0.408 ± 0.019; under setting [2], 0.0304 ± 0.0069.
The matching figures for UCCUGCUACAGCUUGCUUAGUAUUUACUUA: 0.233 ± 0.02 and 0.0139 ± 0.0032.
Turning to UGGACCUACAGCUUGCAUAGUAUAUAGUUA, the “pre-steady-state target cleavage rate” value is, setting by setting: under setting [1], 0.892 ± 0.062; under setting [2], 0.0341 ± 0.0087.
Take UCCUCCUACAGCUUGCAUAGUAUGUUAGUUA: the “pre-steady-state target cleavage rate” value under setting [1] was 0.258 ± 0.027 and the “pre-steady-state target cleavage rate” value under setting [2] was 0.0111 ± 0.0027.
For the sequence UCCACCUACAGCUUGCAUACUAUUUAGAUA, the “pre-steady-state target cleavage rate” value is, setting by setting: under setting [1], 0.101 ± 0.023; under setting [2], 0.00785 ± 0.0021.
For UCCACCUACUGCUUGCAAAGUAUUUAGUUA, the “pre-steady-state target cleavage rate” value under setting [1] was 0.623 ± 0.025 and the “pre-steady-state target cleavage rate” value under setting [2] stood at 0.0305 ± 0.0052.
For the sequence AGGACCAACACCUUGCAUAGUAUUUAGUUA, the “pre-steady-state target cleavage rate” value by setting is: under setting [1], 1.17 ± 0.036; under setting [2], 0.0708 ± 0.011.
With UCGACCUACAGCUUGCAUAGUAAUUACUUA, the “pre-steady-state target cleavage rate” value under setting [1] amounted to 0.231 ± 0.031 and the “pre-steady-state target cleavage rate” value under setting [2] is 0.0184 ± 0.0043.
Regarding AGGACCUACAGCUUGCAUAGAAUUUACUUA, the “pre-steady-state target cleavage rate” value was determined as 0.398 ± 0.051 under setting [1] and 0.0283 ± 0.0085 under setting [2].
As for UCGACCAACAGCUUGCAUAGUAUUUACUUA, the “pre-steady-state target cleavage rate” value was determined as 0.335 ± 0.024 under setting [1] and 0.0337 ± 0.0049 under setting [2].
Regarding UGCACCUACAGCUUGCAUUGUAUUUAGUUA, the “pre-steady-state target cleavage rate” value came out at 0.808 ± 0.057 under setting [1] and 0.0286 ± 0.0068 under setting [2].
For UCCUGGAUCAGCUUGCAUUGUAUUUUGUUA, in that order: 0.285 ± 0.025 and 0.0141 ± 0.006.
As for UCCACCUACAGCUUGCAUAGUAUAUUGUUA, the “pre-steady-state target cleavage rate” value is, setting by setting: under setting [1], 0.349 ± 0.036; under setting [2], 0.0109 ± 0.0024.
Regarding UGGUCCUACACCUUGCAUAGUAUUUAGUUA, the “pre-steady-state target cleavage rate” value worked out at 0.936 ± 0.042 under setting [1] and 0.0532 ± 0.0087 under setting [2].
Regarding UCCUGGAUGUGCCUGCAUAGUAUUUAGUUA, the “pre-steady-state target cleavage rate” value under setting [1] is 0.221 ± 0.024 and the “pre-steady-state target cleavage rate” value under setting [2] amounted to 0.0242 ± 0.0056.
In the case of UCCUCCUAGAGCUUGCAUAGUAUUUAGAUA, the “pre-steady-state target cleavage rate” value came to 0.253 ± 0.037 under setting [1] and 0.0109 ± 0.0023 under setting [2].
For UCCUGGAACACGUUGCAUAGUAUUUAGUUA, in that order: 0.359 ± 0.034 and 0.00608 ± 0.002.
The matching figures for UCCUGGAACAGCUUGCAUACUAUUUAGAUA: 0.0642 ± 0.016 and 0.00941 ± 0.0029.
Regarding UCCACCUACAGCUUGCAUAGAAUUUAGAAA, the “pre-steady-state target cleavage rate” value reads like this: under setting [1], 0.196 ± 0.035; under setting [2], 0.00413 ± 0.0022.
UCCUGCUACAGCUUGGAAAGUAUUUAGUUA: the “pre-steady-state target cleavage rate” value by setting is: under setting [1], 0.903 ± 0.053; under setting [2], 0.00754 ± 0.0024.
The matching figures for UCCACCUACACUUGCAUAGUAUUUAGUUA: 0.893 ± 0.031 and 0.0224 ± 0.0044.
For UCCUCCUACAGCUUGCAAACUAUUUAGUUA, in that order: 0.312 ± 0.019 and 0.0071 ± 0.0021.
As to UGGACGUACAGCUUGCAUAGUAUUUACUUA, the “pre-steady-state target cleavage rate” value is, setting by setting: under setting [1], 0.273 ± 0.029; under setting [2], 0.0472 ± 0.0065.
On to UCCACCUACACCUUGCAUAGAAUUUAGUUA, for which the “pre-steady-state target cleavage rate” value was 0.337 ± 0.066 under setting [1] and 0.0107 ± 0.003 under setting [2].
UCCUGGAUGAGCUUGCAUAGUAUAUAGUUA: the “pre-steady-state target cleavage rate” value is, setting by setting: under setting [1], 0.398 ± 0.046; under setting [2], 0.0202 ± 0.006.
